The record followed here is PMC4336329 (PLoS ONE, 2015).

The campaign covered roughly 310,000 compounds. About 2,200 (0.71%) showed an effect of 50% or more. The effect is printed as a negative number. The list shows a part of the results.

Sequence of human ether-à-go-go-related gene (hERG) potassium channel (Q12809 whole entry, looked up): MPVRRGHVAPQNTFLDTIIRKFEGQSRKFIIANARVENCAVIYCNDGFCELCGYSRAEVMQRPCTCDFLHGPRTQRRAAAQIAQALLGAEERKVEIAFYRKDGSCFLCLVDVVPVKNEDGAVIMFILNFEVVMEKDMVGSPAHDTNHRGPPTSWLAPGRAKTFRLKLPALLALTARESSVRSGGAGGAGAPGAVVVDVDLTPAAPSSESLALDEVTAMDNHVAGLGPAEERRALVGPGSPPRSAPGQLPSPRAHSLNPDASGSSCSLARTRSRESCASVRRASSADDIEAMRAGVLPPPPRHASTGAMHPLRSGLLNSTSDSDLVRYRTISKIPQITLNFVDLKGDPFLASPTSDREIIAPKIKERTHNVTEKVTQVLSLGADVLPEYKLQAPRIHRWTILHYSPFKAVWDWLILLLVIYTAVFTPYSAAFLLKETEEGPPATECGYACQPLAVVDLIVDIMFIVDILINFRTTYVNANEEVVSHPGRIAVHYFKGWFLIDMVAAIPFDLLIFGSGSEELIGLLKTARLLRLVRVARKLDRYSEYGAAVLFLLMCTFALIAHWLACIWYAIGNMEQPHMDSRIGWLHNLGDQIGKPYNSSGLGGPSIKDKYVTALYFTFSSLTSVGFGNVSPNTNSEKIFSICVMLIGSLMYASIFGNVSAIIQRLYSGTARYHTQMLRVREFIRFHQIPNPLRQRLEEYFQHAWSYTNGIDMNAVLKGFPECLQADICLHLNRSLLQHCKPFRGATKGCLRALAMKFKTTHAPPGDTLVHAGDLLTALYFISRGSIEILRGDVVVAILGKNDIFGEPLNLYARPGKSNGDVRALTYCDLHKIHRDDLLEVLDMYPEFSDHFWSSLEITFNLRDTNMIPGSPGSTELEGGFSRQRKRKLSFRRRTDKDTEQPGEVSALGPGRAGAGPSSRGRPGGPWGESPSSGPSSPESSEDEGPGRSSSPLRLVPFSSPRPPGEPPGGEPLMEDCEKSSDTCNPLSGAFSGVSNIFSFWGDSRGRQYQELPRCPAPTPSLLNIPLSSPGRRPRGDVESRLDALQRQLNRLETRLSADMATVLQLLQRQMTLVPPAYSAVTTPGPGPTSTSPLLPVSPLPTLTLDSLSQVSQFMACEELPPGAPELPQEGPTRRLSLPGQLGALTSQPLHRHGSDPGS

This assay addresses human ether-à-go-go-related gene (hERG) potassium channel (human, UniProt Q12809). Put plainly: primary screen, population patch clamp on CHO cells stably expressing hERG.
For `CCCCc1cc(=O)oc2cc(OC(C)C(=O)NCc3ccccn3)c(Cl)cc12` (centres unmarked), the “hERG current change (%, negative = inhibition) at 1uM” value is on record as -2.69%.
Under `COc1ccc(CCNC(=O)c2cc(C3CC3)nc3c2cnn3C(C)C)cc1OC` stands 8.96%; under `CSCCC(NS(=O)(=O)c1ccc2ccccc2c1)C(=O)OCC(=O)c1ccc(C(C)C)cc1` (centres unmarked), 8.03%.
To `CCOC(=O)C(Cc1ccccc1)NC(=O)Cn1nnc(-c2ccc(SC)cc2)n1` (centres unmarked) belongs -7.22%; to `COc1ccc(NC(=O)CCc2nnc3ccc(N4CCC5(CC4)OCCO5)nn23)cc1`, 12.9%; to `CCc1cc2ccccc2nc1SCC(=O)Nc1cc(C)on1`, 5.85%.
To `CCC(C)NC(=O)CC(C)C` (centres unmarked) belongs 4.98%; to `CS(=O)(=O)c1ccc(NC(=O)C2CCCN(C(=O)c3ccc(Cl)cc3)C2)cc1` (centres unmarked), -1.77%; to `COc1ccc(Nc2nc(Cl)nc(Nc3ccc(OC)cc3)n2)cc1`, 9%.
With `CCCC[C@H]1C2=C3[C@@H](CC(C(=O)OC)=C[C@@H](C(=O)OC)[C@H]3C(C)(C)C2=O)n2c(=O)n(-c3ccccc3)c(=O)n21`, the “hERG current change (%, negative = inhibition) at 1uM” value worked out at 7.47%.
To `O=C(Cc1ccccc1[N+](=O)[O-])OCC(=O)N1CCN(c2ccccc2)CC1` belongs 8.02%.
Under `CCN(CC)S(=O)(=O)c1ccc(NS(=O)(=O)c2cccc(C)c2)cc1` stands 5.29%; under `CC1CCN(CCCNC(=O)c2ccc(N3CCCC3=O)cc2)CC1`, 8.23%; under `Cc1ccccc1S(=O)(=O)Cc1ccc(C(=O)NCCN2CCN(Cc3ccccc3)CC2)o1`, -14.6%.
To `O=C(NCc1ccccn1)c1ccccc1OCc1ccc(F)cc1` belongs -22.7%; to `C=CCn1c(SCC(=O)Nc2sccc2C(N)=O)nc2ccccc2c1=O`, 9.41%; to `O=C(NCc1ccc(Cl)c(Cl)c1)c1ccco1`, -1.16%.
Take `CCOc1ccc(NC(=O)c2ccc(NC(=O)C3CCCO3)cc2)cc1` (centres unmarked): the “hERG current change (%, negative = inhibition) at 1uM” value came out at 11.3%.
Turning to `CCCc1nnc(NC(=O)CCC(=O)N2CCN(S(=O)(=O)c3ccc(C)cc3)CC2)s1`, the “hERG current change (%, negative = inhibition) at 1uM” value was found to be 13.1%.
Under `CC(C)(C)c1ccc(-c2nc(C=O)c3ccccn23)cc1` stands -7.91%; under `COC(=O)CSc1cc(C)nc(SC)n1`, 0.266%.
Regarding `Cc1ccccc1-c1coc2cc(O)ccc2c1=O`, the “hERG current change (%, negative = inhibition) at 1uM” value stood at 8.38%.
On to `COc1ccccc1CNC(=O)CCC(=O)N1C[C@H]2C[C@@H](C1)c1cccc(=O)n1C2`, for which the “hERG current change (%, negative = inhibition) at 1uM” value was determined as 2.03%.
Under `COC(=O)[C@H]1[C@H](c2ccccc2)[C@H](C(=O)OC)O[C@H]1c1ccccc1` stands 11.8%; under `c1ccc(Cn2cc(CNc3ccccc3)nn2)cc1`, 6.25%.
To `CCCCNC(=O)CSc1nc2ccccc2c(=O)n1Cc1ccc2c(c1)OCO2` belongs 13.2%; to `O=C(C(=O)N1CCc2ccccc2C1)c1cn(CC(=O)N2CCCCC2)c2ccccc12`, -2.82%.
As to `COCCC(=O)N1CCC(Oc2ccc(C(=O)NCc3ccon3)cc2)CC1`, the “hERG current change (%, negative = inhibition) at 1uM” value is 13.9%.
Under `COc1ccccc1C(=O)NCCC(=O)N1CCCCC1` stands 13%; under `CCOC(=O)C1CCN(S(=O)(=O)c2ccc(Cl)nc2)CC1`, 8.17%; under `CC(C)n1nnnc1SCC(=O)Nc1ccc2c(c1)OCO2`, -4.36%.
Take `Cc1ccc(C)c(NC(=S)N2CCC(NC(=O)C3CCCCC3)CC2)c1`: the “hERG current change (%, negative = inhibition) at 1uM” value is on record as 4.73%.
Under `CN(C[C@H](Cc1ccccc1)N(C[C@@H](Cc1cccc2ccccc12)N(CCc1ccccc1)N=O)N=O)N=O.[Na+]` stands 14.1%.
On to `CCc1ccc(NC(=O)c2cc(C(C)C)on2)cc1`, for which the “hERG current change (%, negative = inhibition) at 1uM” value is reported as -17.8%.
Under `O=C(/C=C/c1ccco1)NC(=S)Nc1nc(-c2ccc3ccccc3c2)cs1` stands 16.3%.
For `COc1ccccc1N1CCN(C(CNC(=O)Oc2ccccc2)c2cccnc2)CC1` (centres unmarked), the “hERG current change (%, negative = inhibition) at 1uM” value was 2.94%.
To `COc1cccc(-c2ncc3ccccc3c2CO)c1` belongs 12.4%.
To `CC1CCC/C(=C\Nc2ccc(C(=O)O)c(O)c2)C1=O` (centres unmarked) belongs 9.19%; to `CCCCOC(=O)CCc1nc2ccccc2[nH]1.Cl`, 9.71%; to `CSCCC(N=C(NS(=O)(=O)c1ccccc1)c1ccccc1)C(=O)O` (centres unmarked), 8.5%.
As for `COCCCNc1cc(C)nc2ccccc12.Cl`, the “hERG current change (%, negative = inhibition) at 1uM” value was -10.3%.
Under `Cc1cccc(NC(=O)CSc2ccc(-c3ccc4c(c3)OCO4)nn2)c1C` stands 4.13%; under `CCOC(=O)c1cnc(SCC(=O)NCc2cccs2)nc1N`, 8.72%; under `Cc1ccc(Cn2cc(S(=O)(=O)c3ccc(C(C)C)cc3)c(=O)c3cc4c(cc32)OCO4)cc1`, 1.66%.
To `CCCCOCCCNC1=NCCCCC1` belongs 5.99%; to `COCCCNC(=O)C(F)(F)C(F)(F)C(=O)NCCCOC`, 4.13%.
Under `Cc1onc(-c2ccccc2Cl)c1C(=O)N1CCOC12CCCCC2` stands 8.25%.
As to `CCOC(=O)/C=C1\NC(=O)C(C)S1` (centres unmarked), the “hERG current change (%, negative = inhibition) at 1uM” value is listed as 11.6%.
Under `CCCCCCS(=O)[C@H]1CS(=O)(=O)C[C@@H]1S(=O)CCCCCC` (some centres unmarked) stands -25.8%; under `CCC(=O)[C@@]1(C)[C@H](C)C[C@H]2[C@@H]3CCC4=CC(=O)C=C[C@]4(C)[C@H]3[C@@H](O)C[C@@]21C`, 9.03%.
In the case of `CCOc1ccc(-c2c(C(=O)N/N=C/c3ccoc3)nnn2-c2nonc2N)cc1`, the “hERG current change (%, negative = inhibition) at 1uM” value turned out to be 13.6%.
With `Cl.Clc1ccc(CN2C3=NCCN3c3ccccc32)cc1Cl`, the “hERG current change (%, negative = inhibition) at 1uM” value is -72.3%.
Under `O=c1[nH]c(=S)n(C2CC2)c(O)c1/C=N/Nc1ccccc1` stands 8.59%.
Under `COc1cc(/C=C2/SC(=S)N(Cc3ccccc3)C2=O)ccc1OCC(=O)O` stands 11.2%; under `CS(=O)(=O)Nc1ccc(C2=NN(C(=O)c3ccco3)C(c3ccccc3F)C2)cc1` (centres unmarked), -19.6%; under `O=C(O)c1c(C(=O)O)c(-c2ccc(F)cc2)n2c1CCC2`, 8.62%.
